Test results: US7235366B1 (priority 1993, dated 2007)

Target: human μ receptor (Homo sapiens, UniProt P35372)
Sequence (P35372 whole entry): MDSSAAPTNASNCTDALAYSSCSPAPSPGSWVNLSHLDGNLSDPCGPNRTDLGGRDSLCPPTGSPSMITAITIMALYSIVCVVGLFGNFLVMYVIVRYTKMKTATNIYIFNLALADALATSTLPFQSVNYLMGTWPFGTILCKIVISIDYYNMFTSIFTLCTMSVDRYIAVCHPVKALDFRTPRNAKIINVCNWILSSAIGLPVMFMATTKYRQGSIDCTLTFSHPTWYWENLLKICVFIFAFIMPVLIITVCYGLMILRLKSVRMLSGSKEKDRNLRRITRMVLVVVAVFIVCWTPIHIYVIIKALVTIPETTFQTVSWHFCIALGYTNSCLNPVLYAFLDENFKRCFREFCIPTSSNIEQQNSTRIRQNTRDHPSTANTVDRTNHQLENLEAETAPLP

| Compound | Effect on forskolin-stimulated cAMP accumulation, human μ receptor |
| --- | --- |
| CN1CC[C@]23CCCC[C@H]2[C@H]1Cc1ccc(O)cc13 [Levorphanol] | decreased cAMP accumulation |
| Leu-enkephalin | significantly reduced |
